# Experimental data published in US20180282275A1, “New alkynyl-substituted 3-phenylpyrrolidine-2,4-diones and use thereof as herbicides” (Bayer CropScience Aktiengesellschaft, priority 2015, published 2018).
# For some assays here: At least one read-out could not be matched to a standard name with certainty. Some entries share one result that the patent states for a list of compounds. Some ranges recur; such a range may be that of the whole group of compounds.
# Key:
# Format in all cases: in vivo
# Alopecurus myosuroides [1] = experiment: Pre-emergence herbicidal effect, greenhouse pot test; details: 320 g a.i./ha, visual score after 3 weeks, 100% = plants have died, 0% = like control
# Text: (§1) Seeds of monocotyledonous and dicotyledonous weed plants and crop plants are laid out in wood-fibre pots in sandy loam and covered with soil. The compounds according to the invention formulated in the form of wettable powders (WP) or as emulsion concentrates (EC) are then applied as aqueous suspension or emulsion at a water application rate of 600 to 800 l/ha (converted) with the addition of 0.2% wetting agent to the surface of the covering soil. After the treatment, the pots are placed in a greenhouse and kept under good growth conditions for the trial plants. The damage to the test plants is scored visually after a test period of 3 weeks by comparison with untreated controls (herbicidal activity in percent (%): 100% activity=the plants have died, 0% activity=like control plants). [table]
# Avena fatua = experiment: as above; details: 320 g a.i./ha, visual score after 3 weeks, 100% = plants have died, 0% = like control
# Text: as §1
# Echinochloa crus-galli [2] = experiment: as above; details: 320 g a.i./ha, visual score after 3 weeks, 100% = plants have died, 0% = like control
# Text: as §1
# Lolium multiflorum = experiment: as above; details: 320 g a.i./ha, visual score after 3 weeks, 100% = plants have died, 0% = like control
# Text: as §1
# Setaria viridis [3] = experiment: as above; details: 320 g a.i./ha, visual score after 3 weeks, 100% = plants have died, 0% = like control
# Text: as §1
# Alopecurus myosuroides [4] = experiment: Post-emergence herbicidal effect, greenhouse pot test; details: 80 g a.i./ha, one-leaf stage, visual score after about 3 weeks, 100% = plants have died
# Experimental: (§2) [table] Seeds of monocotyledonous and dicotyledonous weed and crop plants are laid out in sandy loam in wood-fibre pots, covered with soil and cultivated in a greenhouse under good growth conditions. 2 to 3 weeks after sowing, the test plants are treated at the one-leaf stage. The compounds according to the invention, formulated in the form of wettable powders (WP) or as emulsion concentrates (EC), are then sprayed as aqueous suspension or emulsion at a water application rate of 600 to 800 l/ha (converted) with the addition of 0.2% of wetting agent onto the green parts of the plants. After the test plants have been left to stand in the greenhouse under optimal growth conditions for about 3 weeks, the action of the preparations is assessed visually in comparison to untreated controls (herbicidal action in percent (%): 100% activity=the plants have died, 0% activity=like control plants).
# Echinochloa crus-galli [5] = experiment: as above; details: 80 g a.i./ha, one-leaf stage, visual score after about 3 weeks, 100% = plants have died
# Experimental: as §2
# Setaria viridis [6] = experiment: as above; details: 80 g a.i./ha, one-leaf stage, visual score after about 3 weeks, 100% = plants have died
# Experimental: as §2
structure (smiles),measurement,setting,value
CCOC(=O)OC1=C(c2c(C)cc(C#CC3CC3)cc2CC)C(=O)NC12CCC(OC)CC2 (centres unmarked) [Example P14],Herbicidal effect against [%] ALOMY,Alopecurus myosuroides [1],100%
same,Herbicidal effect against [%] AVEFA,Avena fatua,100%
same,Herbicidal effect against [%] ECHCG,Echinochloa crus-galli [2],100%
same,Herbicidal effect against [%] LOLMU,Lolium multiflorum,80-100%
same,Herbicidal effect against [%] SETVI,Setaria viridis [3],100%
same,Herbicidal effect against [%] ALOMY,Alopecurus myosuroides [4],100%
same,Herbicidal effect against [%] ECHCG,Echinochloa crus-galli [5],100%
same,Herbicidal effect against [%] SETVI,Setaria viridis [6],100%
